# The campaign covered roughly 310,000 compounds. About 14,000 (4.5%) showed an effect of 50% or more. The effect is printed as a negative number. The list shows a part of the results.
# Biological target: human ether-à-go-go-related gene (hERG) potassium channel (human, UniProt Q12809)
# Experiment: primary screen, population patch clamp on CHO cells stably expressing hERG
# 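Also: peak tail current of the secondary pulse compared with the same well before compound.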
# Chain of human ether-à-go-go-related gene (hERG) potassium channel (Q12809 whole entry, looked up): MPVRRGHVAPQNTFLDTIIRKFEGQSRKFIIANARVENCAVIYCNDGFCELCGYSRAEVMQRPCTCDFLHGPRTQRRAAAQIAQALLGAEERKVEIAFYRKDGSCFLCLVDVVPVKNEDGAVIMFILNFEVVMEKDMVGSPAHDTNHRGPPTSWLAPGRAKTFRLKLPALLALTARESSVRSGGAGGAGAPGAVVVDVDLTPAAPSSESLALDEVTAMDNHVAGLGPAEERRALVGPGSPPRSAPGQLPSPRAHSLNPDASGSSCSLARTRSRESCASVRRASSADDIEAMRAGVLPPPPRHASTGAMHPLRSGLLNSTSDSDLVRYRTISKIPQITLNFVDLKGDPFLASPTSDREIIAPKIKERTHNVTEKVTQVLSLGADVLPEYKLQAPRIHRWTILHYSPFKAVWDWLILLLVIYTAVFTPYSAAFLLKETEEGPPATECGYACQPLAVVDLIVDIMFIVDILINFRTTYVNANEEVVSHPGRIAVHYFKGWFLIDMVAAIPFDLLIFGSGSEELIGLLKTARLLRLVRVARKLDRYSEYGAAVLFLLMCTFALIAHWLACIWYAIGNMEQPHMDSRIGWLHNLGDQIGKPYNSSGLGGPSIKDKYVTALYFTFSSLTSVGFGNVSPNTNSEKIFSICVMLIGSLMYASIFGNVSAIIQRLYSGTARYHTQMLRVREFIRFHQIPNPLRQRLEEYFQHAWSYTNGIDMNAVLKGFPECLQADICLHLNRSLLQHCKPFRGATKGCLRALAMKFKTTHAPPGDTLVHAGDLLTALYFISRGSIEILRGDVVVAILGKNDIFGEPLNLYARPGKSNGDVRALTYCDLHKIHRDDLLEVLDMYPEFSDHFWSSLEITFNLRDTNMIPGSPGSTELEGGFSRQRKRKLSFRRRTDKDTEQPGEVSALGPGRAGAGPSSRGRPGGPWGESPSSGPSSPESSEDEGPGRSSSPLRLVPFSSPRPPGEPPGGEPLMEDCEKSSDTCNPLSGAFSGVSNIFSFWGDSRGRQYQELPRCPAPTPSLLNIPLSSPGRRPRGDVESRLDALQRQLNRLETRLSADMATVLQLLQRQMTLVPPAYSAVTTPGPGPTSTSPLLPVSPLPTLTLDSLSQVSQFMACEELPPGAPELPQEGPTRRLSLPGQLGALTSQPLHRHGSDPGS
row,SMILES,"hERG current change (%, negative = inhibition) at 10uM"
1,CCN1CCN(c2cc(C)c3cc(NC(=S)NCCCOC)ccc3n2)CC1,5.8%
2,COc1nnc(-c2ccc(N3CCCCC3)c(NC(C)=O)c2)c2ccccc12,-1.44%
3,O=C(Nc1ccc2snnc2c1)N1CCSCC1,6.76%
4,O=C(c1ccc(Cl)s1)N1CCN(c2ncccn2)CC1,-12.3%
5,O=C1/C(=C/c2ccc3c(c2)OCO3)Oc2cc(OCC(=O)N3CC(O)C[C@H]3C(=O)O)ccc21 (stereo partly drawn),-2.54%
6,COc1cc2c(cc1OC)C(c1cc3cc4c(cc3[nH]c1=O)OCO4)N(C(=O)C(C)C)CC2 (stereo not drawn),-4.79%
7,CCCNC(=O)CSc1nnc(C)s1,2.8%
8,CCCc1cn(S(=O)(=O)c2ccc(OC)cc2OC)nc1N,-11.6%
9,O=C(NCC1(N2CCCCC2)CCCCC1)c1cccc(NS(=O)(=O)c2ccccc2)c1,-64.4%
10,Fc1ccccc1CSc1nncn1NC/C=C/c1ccccc1,-4.88%
11,CC1C(C(=O)Nc2ccccc2)CCCC1(C)C(=O)O (stereo not drawn),-8.15%
12,COc1ccc(CCN2C(=O)C3C4C=CC(C5CC45)C3C2=O)cc1OC (stereo not drawn),-0.203%
13,CC1(C)CC(N2CCCC2)=CC(=[N+]2CCCC2)C1.[I-],-12.1%
14,COc1ccc(CCNC(=O)C2CCCN(c3nc4ccccc4s3)C2)cc1OC (stereo not drawn),5.33%
15,O=C(NC1CCCC1)C(c1ccccn1)N(C(=O)c1csnn1)c1ccccc1 (stereo not drawn),16.1%
16,CC(=O)/C(=N/Nc1ccccc1)Sc1nnc(CCc2ccccc2)n1-c1ccccc1,-30.7%
17,Cc1ccc(C)c(-n2c(Cc3cc(=O)[nH]c(=O)[nH]3)nnc2SCC(=O)NCC2CCCO2)c1 (stereo not drawn),1.39%
18,Cc1ccc(CSc2ncnc3onc(C)c23)cc1,5.18%
19,O=C(O)[C@@H](O)c1ccccc1,6.63%

row,SMILES,"hERG current change (%, negative = inhibition) at 10uM"
1,O=C(Nc1ccc(S(=O)(=O)Nc2cnc3ccccc3n2)cc1)c1ccc(F)cc1,-3.77%
2,Cn1c(Cn2c(=O)sc3ccccc32)nnc1SCC(=O)NCC1CCCO1 (stereo not drawn),8.76%
3,CC(C)CN(C(=O)COC(=O)c1ccc(-c2ccccc2)cc1)C1CCS(=O)(=O)C1 (stereo not drawn),17.5%
4,O=C(CSCc1ccccc1)N/N=C/c1ccc(OCC(=O)N2CCCCC2)cc1,8.35%
5,CCCNC(=O)Nc1ccccc1C(=O)Nc1ccc(OC)cc1,2.77%
6,Cc1onc(-c2ccc3c(c2)OCO3)c1-c1ccc2[nH]ccc2c1,-17.9%
7,Cc1ccc(OCC(=O)NCCO)c(Br)c1,14.3%
8,O=C(NC1CCN(Cc2nnnn2CCc2ccccc2)CC1)c1ccccc1F,-3.18%
9,CS(=O)(=O)N(CC(N)=O)Cc1ccc(Cl)cc1,-28%
10,CN(C)c1ccc(C2/C(=C(/O)c3ccccc3)C(=O)C(=O)N2CCCC(=O)O)cc1 (stereo not drawn),-10.7%
11,CCC1(C)Cc2c(sc3nn[nH]c(=O)c23)CO1 (stereo not drawn),11.4%
12,Cc1ccc(OCC(=O)NC2CCS(=O)(=O)C2)c([N+](=O)[O-])n1 (stereo not drawn),18.5%
13,O=S(=O)(NC1CCCCC1)c1ccc(Cl)nc1,-1.36%
14,COc1ccc(C(=O)Nc2cnccn2)cc1[N+](=O)[O-],6.88%
15,CN(C(=S)Nc1ccccc1F)C1(c2ccccc2Cl)CCCCC1=O (stereo not drawn),3.09%
16,COc1ccc(C2=NN(C(=O)CSc3ncccn3)C(c3ccc(OC)cc3)C2)cc1 (stereo not drawn),-4.78%
17,CS(=O)(=O)c1ccc2nc(NC(=O)C3CCCO3)sc2c1 (stereo not drawn),15.7%
18,CCC(C)n1c(O)c(C(c2ccccn2)c2c(O)n(C(C)CC)c(=S)[nH]c2=O)c(=O)[nH]c1=S (stereo not drawn),10%
19,O=C(NCc1ccccc1)c1ccccc1-c1nc2ccccc2[nH]1,5.07%

row,SMILES,"hERG current change (%, negative = inhibition) at 10uM"
1,COc1cccc(/C=C/C(=O)NCCc2ccc(OC)c(OC)c2)c1,-16.3%
2,O=C(OCc1c(-c2ccccc2)ncc2ccccc12)c1cccc(Br)c1,-0.0854%
3,CN(CC(=O)Nc1cccc(F)c1)C(=O)c1ccc(-c2ccc(Cl)cc2)o1,8.35%
4,CC(C)C(=O)Nc1nnc(-c2ccccc2)o1,13.2%
5,c1ccn2cc(CSC3=NCCS3)nc2c1,12.5%
6,C#CCOc1ccc2ccccc2c1/C=C(/C#N)c1ccc(C(=O)O)cc1,9.4%
7,CC(C)(O)[C@H]1Cc2cc3ccc(=O)oc3cc2O1,21.2%
8,CCOc1ccc(OCCCC(=O)N(CC)CC(=O)Nc2c(F)cccc2F)cc1,-5.99%
9,COc1ccc2[nH]cc(CCNS(=O)(=O)Cc3ccccc3)c2c1,12.2%
10,CCN(C(=O)CN1C(=O)NC(c2ccccc2)(c2ccc(C)c(C)c2)C1=O)C1CCS(=O)(=O)C1 (stereo not drawn),-53.4%
11,COc1cc(OC)c(OC)cc1CN1CCN(Cc2cccc(F)c2)CC1.O=C(O)C(=O)O,10.2%
12,CCOc1ccc(S(=O)(=O)NCCC(=O)NC2CCCCC2)cc1,-8.11%
13,O=C(NCCC1=CCCCC1)C1CCN(S(=O)(=O)N2CCCC2)CC1,5.75%
14,COc1ccc(CN(CCN(C)C)c2ccccn2)cc1.O=C(O)/C=C\C(=O)O,-38.5%
15,CC(C)(C)c1ccc(S(=O)(=O)N2CCN(CC(O)COCC3CCCO3)CC2)cc1 (stereo not drawn),-37.3%
16,CC(=O)c1ccc(NC(=O)C(C)N2CCN(C/C=C/c3ccccc3)CC2)cc1 (stereo not drawn),-71.4%
17,CC(=O)Nc1ccc(S(=O)(=O)NCCSCc2ccco2)cc1,-7.67%
18,COc1ccccc1NC(=O)COc1ccccc1,10.9%
19,CN(C)C1=NCCN1CCCCc1ccccc1,-37.4%

# — publication PMC4336329 (PLoS ONE, 2015)
